Data from the supplement of paper PMC12217912.
The list shows a part of the results. The full chains were built here from the parent and the listed change. Inactive controls read about 0.05.

B1: TEV protease; numbered along this chain (parent)
chain: MGESLFKGPRDYNPISSSICHLTNESDGHTTSLYGIGFGPFIITNKHLFRRNNGTLVVQSLHGVFKVKDTTTLQQHLVDGRDMIIIRMPKDFPPFPQKLKFREPQREERICLVTTNFQTKSMSSMVSDTSCTFPSGDGIFWKHWIQTKDGQCGSPLVSTRDGFIVGIHSASNFTNTNNYFTSVPKNFMELLTNQEAQQWVSGWRLNADSVLWGGHKVFMVKPEEPFQPVKEATQL

Variants of: B1
Assay: raw area under fraction-flipped curve 0-4 h after induction (AUC4h, not background-subtracted), DNA-recorder readout of cleavage of the substrate (dimensionless); higher = more cleavage of the substrate by the protease variant
Settings: temperature: 34 °C; time window: 0-4 h after rhamnose induction
Description: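 In vivo DNA recorder in E. coli TOP10(DE3) ΔrhaA at 34 °C. Each TEVp single-site mutant (parent TEVp 0) is paired with a single-site variant of the 7-mer TEVs (canonical ENLYFQ|S). The substrate sits between flexible linkers in a Bxb1-sfGFP-TEVs-SsrA fusion, so cleavage stabilises Bxb1 and speeds flipping of a recombination array, read by NGS. The value is the raw area under the fraction-flipped curve over 0-4 h after rhamnose induction (AUC4h), with ≥20 reads per time point. It is not background-subtracted; inactive controls average about 0.047.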
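Also: Bxb1 expression induced with 0.2% (w/v) L-rhamnose at OD600 near 0.5, cultures sampled hourly, flipped fraction per protease–substrate barcode pair counted by paired-end Illumina sequencing.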

Variant	area with substrate CNLYFQS	area with substrate FNLYFQS	area with substrate GNLYFQS	area with substrate HNLYFQS	area with substrate INLYFQS	area with substrate LNLYFQS	area with substrate MNLYFQS	area with substrate NNLYFQS	area with substrate PNLYFQS	area with substrate QNLYFQS
W203K	0.0705	0.0567	0.0634	0.053	0.0557	0.0674	0.086	0.0596	0.0517	0.0483
F101Y	0.0624	0.0642	–	–	0.0504	0.0524	–	–	–	–
R109F	0.0872	–	–	0.0704	0.0624	0.0675	–	0.0966	–	–
T70V	0.0559	0.0669	0.0414	0.0521	–	0.0573	0.0504	–	0.0711	–
Y34N	0.0692	–	–	–	–	–	0.0681	–	0.0733	–
D82I	0.0529	0.0599	–	0.0353	0.0578	–	–	0.0358	–	–
Q146L	0.0834	–	–	0.0605	0.0755	–	–	–	–	–
F218K	0.0566	–	–	–	–	0.0682	–	–	–	0.061
F92R	0.0576	–	–	–	–	–	–	–	–	–
F218T	0.0514	0.0358	0.0631	0.0613	–	0.0591	–	–	–	–
I86A	0.0211	0.0496	–	–	0.0625	–	0.0696	–	–	0.0526
Q151F	0.0557	–	–	0.052	–	0.0586	–	–	0.0537	–
Y179N	0.0466	–	0.0491	–	–	–	–	–	–	–
N186I	0.0522	–	0.0766	0.0749	–	–	–	–	0.0718	–
D149H	0.0621	–	–	–	0.0564	–	0.0601	–	–	–
C131R	0.0663	–	–	–	–	–	–	0.0654	–	–
V58T	0.0492	–	–	–	–	–	–	–	0.0546	–
N193D	0.0696	–	–	–	–	–	–	–	–	–
M83V	0.0634	0.0633	–	–	–	–	–	0.0661	–	–
Q97F	0.0582	0.0706	–	–	–	–	–	–	0.0847	–
L61Q	0.0683	–	0.0912	–	–	0.0625	0.0719	0.0801	0.0763	–
T159R	0.0708	–	–	0.0293	–	0.0765	–	0.0626	0.0696	–
P134S	0.0663	0.0509	–	0.0668	0.0787	0.0541	0.0685	–	0.0705	–
T159F	0.0711	–	–	0.0581	–	–	–	–	–	–

Variant	area with substrate CNLYFQS	area with substrate FNLYFQS	area with substrate GNLYFQS	area with substrate HNLYFQS	area with substrate INLYFQS	area with substrate LNLYFQS	area with substrate MNLYFQS	area with substrate NNLYFQS	area with substrate PNLYFQS	area with substrate QNLYFQS
T70Y	0.0552	0.0587	0.0797	0.0504	–	0.0638	0.0551	0.0657	0.0532	–
K148S	0.0662	–	–	–	–	0.0676	–	–	–	–
P93N	0.0484	–	–	–	0.0738	–	0.074	–	–	–
M88K	0.067	–	–	–	–	–	–	–	–	–
E107F	0.0648	0.118	0.0711	0.0398	0.0536	0.0567	0.0604	0.0613	–	–
F6R	0.0629	–	–	0.0566	–	–	–	0.059	–	–
V217R	0.0622	0.0601	0.0667	–	0.0498	–	–	0.0737	–	–
F140H	0.0638	–	–	–	–	0.0629	–	0.0596	0.0553	–
T159A	0.0788	–	–	0.0617	–	0.0692	0.0689	–	–	–
F218Y	0.0641	–	–	–	0.066	–	–	–	–	–
L190C	0.0834	–	0.0568	0.0453	0.0461	–	–	–	–	–
P225S	0.0899	–	–	0.107	–	0.0527	–	–	–	–
F49S	0.0725	0.0508	0.0565	0.0434	0.0396	0.0585	–	–	0.0432	–
L205A	0.0635	–	–	0.0604	–	–	–	–	–	–
N177K	0.0727	–	–	–	0.0868	–	–	–	0.0729	–
K142Q	0.0873	–	0.0686	0.0711	0.0689	–	–	–	–	–
S201Y	0.0626	–	–	–	0.0576	0.05	0.0757	–	0.0201	0.0691
I145P	0.0101	–	–	–	–	–	–	–	–	–
Q97K	0.0561	–	–	–	–	–	–	–	–	–
T114D	0.0693	0.0513	–	0.0708	0.0542	0.0569	–	–	0.0503	–
R106L	0.103	0.0739	–	0.0579	–	0.118	–	–	–	–
N175W	0.0481	0.0505	–	–	–	–	–	–	0.0548	–
T71D	0.0463	–	–	0.0146	0.055	0.0395	–	–	0.0625	–
T71Y	0.072	0.0697	–	0.0566	–	0.0547	–	0.0602	0.0558	–

Same assay, conditions: temperature: 34 °C; time window: 0-4 h after rhamnose induction

Variant	area with substrate SNLYFQS	area with substrate TNLYFQS	area with substrate WNLYFQS	area with substrate YNLYFQS	area with substrate VNLYFQS	area with substrate RNLYFQS	area with substrate KNLYFQS
W203K	0.0451	0.0628	0.056	0.0442	–	–	–
F101Y	–	0.0584	0.0499	0.0655	–	–	–
R109F	0.069	0.0485	–	–	0.0658	–	–
T70V	0.0701	0.063	0.0686	0.0633	–	0.0607	–
Y34N	0.0698	–	0.0518	–	–	0.0704	–
D82I	–	0.0511	0.055	–	–	–	0.044
Q146L	0.0721	0.0592	0.0562	–	–	–	0.0957
F218K	–	–	0.0499	–	–	–	0.0547
F218T	–	–	0.0506	0.0573	–	–	–
I86A	0.0701	0.0582	0.0647	–	–	–	–
Q151F	–	0.0493	0.0627	–	–	–	0.0775
Y179N	–	0.0512	–	0.0508	0.0539	–	–
N186I	–	0.0462	–	–	–	–	0.09
D149H	–	0.0403	0.0567	0.0583	0.0563	–	0.0603
C131R	0.0651	–	0.0709	0.0664	0.0663	–	–
V58T	–	–	0.0422	–	–	–	–
N193D	0.0716	0.0634	–	0.0532	–	–	–
M83V	0.0671	–	–	–	–	–	0.0066
Q97F	0.106	0.0567	0.0717	0.0547	–	–	–
L61Q	–	0.0642	0.0573	–	0.0655	–	0.079
T159R	–	0.0622	–	–	–	0.0905	–
P134S	–	–	0.0581	–	–	–	0.0647
T159F	–	0.0596	–	–	–	–	–

Variant	area with substrate SNLYFQS	area with substrate TNLYFQS	area with substrate WNLYFQS	area with substrate YNLYFQS	area with substrate VNLYFQS	area with substrate RNLYFQS	area with substrate KNLYFQS
T70Y	–	–	–	0.0662	0.0608	–	0.005
K148S	–	0.0479	0.0664	–	–	–	–
P93N	–	0.0825	–	–	–	–	–
M88K	–	–	0.0456	–	–	–	–
E107F	0.0616	0.0689	0.0603	–	–	–	–
F6R	0.0589	0.116	0.0566	–	–	–	–
V217R	–	–	–	0.0593	–	–	–
F140H	–	0.0564	0.056	0.066	–	–	–
T159A	0.0477	0.0441	0.0451	–	–	–	0.0441
F218Y	–	–	–	–	0.0581	–	–
L190C	–	0.112	0.0662	0.0604	0.0675	–	0.0641
P225S	0.0538	–	–	0.0586	–	–	–
F49S	0.0416	0.0536	0.0542	–	0.0719	0.0436	0.059
L205A	0.0514	–	0.046	–	–	–	–
N177K	0.0985	0.0816	0.0508	0.0716	–	–	–
K142Q	0.0707	0.0674	0.0708	0.0854	0.0646	0.089	–
S201Y	0.0678	–	0.063	–	0.0726	–	0.0601
Q97K	0.0497	–	–	–	0.0522	–	0.0645
T114D	0.0705	0.047	–	–	–	–	–
R106L	–	0.0841	0.0646	0.0552	–	–	–
N175W	–	0.0635	–	–	–	–	–
T71D	–	0.071	0.0537	–	–	–	0.0606
T71Y	–	0.075	0.0514	–	–	–	0.0461
